Measurements reported in FireProtDB.
Several values for one entry are separate records, joined by “and”; a condition that tells them apart may be missing. Equal entries are not always repeated.

Details: Gallus gallus, Thermal, DSC, reversible: yes
[1] = pH 3.6, phosphoric acid-sodium phosphate 0.2 M
[2] = pH 4, phosphoric acid-sodium phosphate 0.2 M

With “Lysozyme C wild type (sequence not shown)” the Tm (pH 2.2, HCl-glycine 0.1 M) was 52.6 °C, the “heat capacity change of unfolding” value (pH 2.2, HCl-glycine 0.1 M) was 0.73 kcal/mol/K and the “unfolding enthalpy (calorimetric)” value (pH 2.2, HCl-glycine 0.1 M) was 94.2 kcal/mol. The “unfolding enthalpy (van 't Hoff)” value (pH 2.2, HCl-glycine 0.1 M) was 82.2 kcal/mol, the Tm (pH 2.3, HCl-glycine 0.1 M) was 56.9 °C and the “heat capacity change of unfolding” value (pH 2.3, HCl-glycine 0.1 M) was 2.36 kcal/mol/K. For the same substance, the “unfolding enthalpy (calorimetric)” value (pH 2.3, HCl-glycine 0.1 M) was 113 kcal/mol, the “unfolding enthalpy (van 't Hoff)” value (pH 2.3, HCl-glycine 0.1 M) was 111 kcal/mol and the Tm (pH 2.3, HCl-glycine 0.2 M) was 52.6 °C. The “heat capacity change of unfolding” value (pH 2.3, HCl-glycine 0.2 M) was 0.38 kcal/mol/K, the “unfolding enthalpy (calorimetric)” value (pH 2.3, HCl-glycine 0.2 M) was 79.1 kcal/mol and the “unfolding enthalpy (van 't Hoff)” value (pH 2.3, HCl-glycine 0.2 M) was 84.4 kcal/mol. For the same substance, the Tm (pH 2.4, HCl-glycine 0.2 M) was 53.1 °C and 53.6 °C, the “heat capacity change of unfolding” value (pH 2.4, HCl-glycine 0.2 M) was 1.29 kcal/mol/K and 1.4 kcal/mol/K and the “unfolding enthalpy (calorimetric)” value (pH 2.4, HCl-glycine 0.2 M) was 76.7 kcal/mol and 99.9 kcal/mol. The “unfolding enthalpy (van 't Hoff)” value (pH 2.4, HCl-glycine 0.2 M) was 82.2 kcal/mol and 95.4 kcal/mol, the Tm (pH 2.7, HCl-glycine 0.2 M) was 56.6 °C and 58.1 °C and 59 °C and the “unfolding enthalpy (calorimetric)” value (pH 2.7, HCl-glycine 0.2 M) was 90.1 kcal/mol and 93.9 kcal/mol and 97.8 kcal/mol. For the same substance, the “unfolding enthalpy (van 't Hoff)” value (pH 2.7, HCl-glycine 0.2 M) was 92.7 kcal/mol and 96.1 kcal/mol and 98.2 kcal/mol, the Tm (pH 2.8, HCl-glycine 0.2 M) was 60.1 °C and the “heat capacity change of unfolding” value (pH 2.8, HCl-glycine 0.2 M) was 0.33 kcal/mol/K. For the same substance, the “unfolding enthalpy (calorimetric)” value (pH 2.8, HCl-glycine 0.2 M) was 115 kcal/mol, the “unfolding enthalpy (van 't Hoff)” value (pH 2.8, HCl-glycine 0.2 M) was 104 kcal/mol and the Tm (pH 3, HCl-glycine 0.2 M) was 63.1 °C. The “heat capacity change of unfolding” value (pH 3, HCl-glycine 0.2 M) was 1.18 kcal/mol/K, the “unfolding enthalpy (calorimetric)” value (pH 3, HCl-glycine 0.2 M) was 111 kcal/mol and the “unfolding enthalpy (van 't Hoff)” value (pH 3, HCl-glycine 0.2 M) was 105 kcal/mol. For the same substance, the Tm (pH 3.1, HCl-glycine 0.2 M) was 63.5 °C and 65.8 °C, the “heat capacity change of unfolding” value (pH 3.1, HCl-glycine 0.2 M) was 1.77 kcal/mol/K and 1.69 kcal/mol/K and the “unfolding enthalpy (calorimetric)” value (pH 3.1, HCl-glycine 0.2 M) was 108 kcal/mol and 116 kcal/mol. The “unfolding enthalpy (van 't Hoff)” value (pH 3.1, HCl-glycine 0.2 M) was 103 kcal/mol and 109 kcal/mol, the Tm (pH 3.2, HCl-glycine 0.2 M) was 64 °C and 67.2 °C and the “heat capacity change of unfolding” value (pH 3.2, HCl-glycine 0.2 M) was 2.58 kcal/mol/K and 1.4 kcal/mol/K. For the same substance, the “unfolding enthalpy (calorimetric)” value (pH 3.2, HCl-glycine 0.2 M) was 88.9 kcal/mol and 107 kcal/mol, the “unfolding enthalpy (van 't Hoff)” value (pH 3.2, HCl-glycine 0.2 M) was 98 kcal/mol and 107 kcal/mol and the Tm (pH 3.3, HCl-glycine 0.2 M) was 61.1 °C and 63 °C. For the same substance, the “unfolding enthalpy (calorimetric)” value (pH 3.3, HCl-glycine 0.2 M) was 103 kcal/mol and 105 kcal/mol, the “unfolding enthalpy (van 't Hoff)” value (pH 3.3, HCl-glycine 0.2 M) was 101 kcal/mol and 108 kcal/mol and the Tm (pH 3.4, HCl-glycine 0.2 M) was 69.2 °C. The “heat capacity change of unfolding” value (pH 3.4, HCl-glycine 0.2 M) was 1.15 kcal/mol/K, the “unfolding enthalpy (calorimetric)” value (pH 3.4, HCl-glycine 0.2 M) was 110 kcal/mol and the “unfolding enthalpy (van 't Hoff)” value (pH 3.4, HCl-glycine 0.2 M) was 110 kcal/mol. For the same substance, the Tm (pH 3.5, HCl-glycine 0.2 M) was 70.8 °C, the “heat capacity change of unfolding” value (pH 3.5, HCl-glycine 0.2 M) was 2.05 kcal/mol/K and the “unfolding enthalpy (calorimetric)” value (pH 3.5, HCl-glycine 0.2 M) was 127 kcal/mol. The “unfolding enthalpy (van 't Hoff)” value (pH 3.5, HCl-glycine 0.2 M) was 116 kcal/mol, the Tm (pH 3.6, HCl-glycine 0.2 M) was 71 °C and 72.5 °C and the “heat capacity change of unfolding” value (pH 3.6, HCl-glycine 0.2 M) was 1.77 kcal/mol/K and 1.56 kcal/mol/K. For the same substance, the “unfolding enthalpy (calorimetric)” value (pH 3.6, HCl-glycine 0.2 M) was 123 kcal/mol and 128 kcal/mol, the “unfolding enthalpy (van 't Hoff)” value (pH 3.6, HCl-glycine 0.2 M) was 114 kcal/mol and 117 kcal/mol and the Tm [1] was 72.3 °C. For the same substance, the “heat capacity change of unfolding” value [1] was 4.25 kcal/mol/K, the “unfolding enthalpy (calorimetric)” value [1] was 116 kcal/mol and the “unfolding enthalpy (van 't Hoff)” value [1] was 116 kcal/mol. The Tm (pH 3.8, HCl-glycine 0.1 M) was 75.7 °C, the “heat capacity change of unfolding” value (pH 3.8, HCl-glycine 0.1 M) was 1.98 kcal/mol/K and the “unfolding enthalpy (calorimetric)” value (pH 3.8, HCl-glycine 0.1 M) was 114 kcal/mol. The “unfolding enthalpy (van 't Hoff)” value (pH 3.8, HCl-glycine 0.1 M) was 115 kcal/mol, the Tm (pH 3.8, HCl-glycine 0.2 M) was 73.8 °C and 74.5 °C and the “heat capacity change of unfolding” value (pH 3.8, HCl-glycine 0.2 M) was 2.8 kcal/mol/K and 2.09 kcal/mol/K. For the same substance, the “unfolding enthalpy (calorimetric)” value (pH 3.8, HCl-glycine 0.2 M) was 124 kcal/mol and 126 kcal/mol, the “unfolding enthalpy (van 't Hoff)” value (pH 3.8, HCl-glycine 0.2 M) was 121 kcal/mol and 120 kcal/mol and the Tm (pH 3.9, HCl-glycine 0.2 M) was 75 °C and 75.5 °C. The “heat capacity change of unfolding” value (pH 3.9, HCl-glycine 0.2 M) was 3.9 kcal/mol/K and 1.68 kcal/mol/K, the “unfolding enthalpy (calorimetric)” value (pH 3.9, HCl-glycine 0.2 M) was 120 kcal/mol and 110 kcal/mol and the “unfolding enthalpy (van 't Hoff)” value (pH 3.9, HCl-glycine 0.2 M) was 119 kcal/mol and 117 kcal/mol. For the same substance, the Tm [2] was 77 °C, the “heat capacity change of unfolding” value [2] was 1.96 kcal/mol/K and the “unfolding enthalpy (calorimetric)” value [2] was 117 kcal/mol. For the same substance, the “unfolding enthalpy (van 't Hoff)” value [2] was 131 kcal/mol.
